Results: PubChem BioAssay AID504845 (National Center for Advancing Translational Sciences (NCATS), 2011)
Among all 390,000 compounds or so, about 150 (0.038%) were called active. Inconclusive results, whose numbers are uncertain, are shown with a selection of clear calls. The call rests on the fitted dose curve; in most records, active means well fitted inhibition curve with a large enough effect; inconclusive means small, poorly fitted or top-dose-only effect; inactive means no such curve, though single readings can be large or run the other way. Potencies of inconclusive entries are doubtful fits and often do not repeat.

What follows are compounds tested against Regulator of G-protein signaling 4 (Homo sapiens) (UniProt P49798) (assay: Inhibitors of Regulator of G Protein Signaling (RGS) 4: qHTS). Conditions: Transcreener GDP fluorescence polarization, RGS4-accelerated GTP hydrolysis; series mostly up to 114 µM.
Summary of the method: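 MLSMR compounds (23 nl, pin-transferred) preincubated 10 min at room temperature with a 500nM (2x) first reagent, then RGS4 at 900nM (2x) plus Transcreener GDP mix added; fluorescence polarization (620/688 nm) read before and after 90 min at 30 °C.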
Further: nearly all actives have a fitted effect of over 75% in size.
Potency means the concentration at half of the fitted maximal effect; tags describe the fitted curve by direction and shape.

UniProt P49798, sequence (P49798 whole entry, looked up): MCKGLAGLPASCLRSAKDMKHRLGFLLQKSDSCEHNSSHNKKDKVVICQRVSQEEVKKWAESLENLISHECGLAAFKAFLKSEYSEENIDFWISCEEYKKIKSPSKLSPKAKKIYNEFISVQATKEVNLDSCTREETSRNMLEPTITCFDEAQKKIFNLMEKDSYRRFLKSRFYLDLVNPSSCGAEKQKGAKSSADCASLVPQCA

Row | SMILES | Potency
1 | Oc1ccc(-c2csc(Nc3cccc4ccccc34)n2)cc1O | inconclusive: 39.8 µM [inhibitor, partial curve, poor fit]
2 | CC(=O)c1sc(=S)n(Cc2ccccc2)c1C | inconclusive: 89.1 µM [inhibitor, single point]
3 | COc1cc2c(cc1N)-c1ccc(N)cc1C2 | inconclusive: 100 µM [inhibitor, single point]
4 | O=[N+]([O-])c1ccccc1/C=C/C=N/Nc1nc(N2CCCCC2)nc(N2CCCCC2)n1 | inconclusive: 50.1 µM [inhibitor, partial curve, poor fit]
5 | COc1ccccc1OCc1nc2ccccc2n1C | inactive
6 | CN1CCN(C(=S)Nc2ccc(S(N)(=O)=O)cc2)CC1 | inconclusive: 89.1 µM [inhibitor, single point]
7 | O=[N+]([O-])c1ccccc1/C=C/C=N/n1c(-c2ccccc2)n[nH]c1=S | inconclusive: 89.1 µM [inhibitor, single point]
8 | O=[N+]([O-])c1ccc(CSc2ccc(S(=O)(=O)N3CCCC3)cn2)cc1 | inconclusive: 79.4 µM [inhibitor, single point]
9 | Cn1c(N)c(C(=O)NCc2ccccc2)sc1=S | inconclusive: 50.1 µM [inhibitor, partial curve, poor fit]
10 | C=CCN1C(=O)/C(=c2\sc3nc(=O)c(Cc4ccc(OC)c(OC)c4)nn3c2=O)c2ccccc21 | inconclusive: 50.1 µM [inhibitor, partial curve, poor fit]
11 | CC(C)CCN(C(=O)c1csnn1)C(C(=O)NC1CCCCC1)c1ccc(F)cc1 (centres undefined) | inactive
12 | O=C(NCc1ccco1)c1ccc(Cn2c(=O)c3sccc3n(Cc3cccc(F)c3)c2=O)cc1 | inconclusive: 50.1 µM [inhibitor, partial curve, poor fit]
13 | NC(=S)NN=C1CCCCCCCCCC1 | inconclusive: 56.2 µM [inhibitor, partial curve, poor fit]
14 | CCN(c1ccc(C(=O)CSc2nnc(C3CC3)n2C2CC2)cc1)S(C)(=O)=O | inconclusive: 20 µM [inhibitor, full curve, poor fit]
15 | O=C(CCCNS(=O)(=O)c1ccc(Cl)c(Cl)c1)NCCc1ccccn1 | inconclusive: 79.4 µM [inhibitor, partial curve, poor fit]
16 | Cn1nc(C(F)(F)F)cc1C(=O)O | inconclusive: 70.8 µM [inhibitor, partial curve, poor fit]
17 | O=C(COC(=O)c1ccccc1[N+](=O)[O-])c1ccc2c(c1)OCO2 | inactive
18 | O=C(NNc1ccc([N+](=O)[O-])cc1)Nc1ccccc1 | inconclusive: 79.4 µM [inhibitor, partial curve, poor fit]
19 | COc1ccc(/C=C/C(=O)C(C(N)=O)=C2SCCS2)cc1 | inactive
20 | COc1ccccc1N(O)C1CC(=O)N(c2ccc(Br)cc2)C1=O (centres undefined) | inconclusive: 79.4 µM [inhibitor, partial curve, poor fit]
21 | CCN(CC)S(=O)(=O)c1ccc(OC)c(NC(=S)Nc2cccc(C)c2C)c1 | inconclusive: 89.1 µM [inhibitor, single point]
22 | CC1Cc2ccccc2N1C(=O)COC(=O)CCc1nc2ccccc2c(=O)[nH]1 (centres undefined) | inconclusive: 17.8 µM [inhibitor, full curve, poor fit]

Row | SMILES | Potency
23 | CC(C)(C)C1=NN=C2c3ccccc3C(=O)C21 (centres undefined) | inconclusive: 79.4 µM [inhibitor, single point]
24 | Nc1c(C(=O)Nc2ccc(Br)cc2)sc2nc(-c3ccncc3)ccc12 | inconclusive: 112 µM [inhibitor, partial curve, poor fit]
25 | C=CCSC(=S)NC1CCS(=O)(=O)C1 (centres undefined) | inconclusive: 79.4 µM [inhibitor, single point]
26 | COc1ccc2c(c1)CC/C(=C\c1ccc(OC)c(Cn3nc(C)cc3C)c1)C2=O | inconclusive: 17.8 µM [inhibitor, full curve, poor fit]
27 | CC1(C)OC(=O)C(=CNc2ncccn2)C(=O)O1 | inactive
28 | Cn1c(=O)[nH]c(=O)c2c1[nH]c(=S)n2CCCc1ccccc1 | inconclusive: 20 µM [inhibitor, full curve, poor fit]
29 | Nc1ccccc1SC/C=C/CSc1ccccc1N | inconclusive: 50.1 µM [inhibitor, partial curve, poor fit]
30 | COc1ccccc1NC(CC(=O)c1ccccc1)C(=O)OCC(=O)c1ccc(C)c(C)c1 (centres undefined) | inconclusive: 31.6 µM [inhibitor, full curve, poor fit]
31 | COc1ccc(/C=N/NC(=O)c2ccc(COCC(F)(F)C(F)F)cc2)cc1 | inconclusive: 28.2 µM [inhibitor, full curve, poor fit]
32 | Cc1ccc(/C=C2/C(=O)c3ccc(C(=O)O)cc3C2=O)o1 | inconclusive: 50.1 µM [inhibitor, partial curve, poor fit]
33 | COc1cc(C(=O)Nc2ccc(-c3nnc(-c4ccco4)o3)cc2)cc(OC)c1OC | inactive
34 | Cc1c(N(C(=O)Nc2ccccc2)C2=NCC(C)S2)c(=O)n(-c2ccccc2)n1C (centres undefined) | inactive
35 | Cc1ccc(-c2nnnn2-c2ccc(C)cc2)cc1 | inconclusive: 50.1 µM [inhibitor, partial curve, poor fit]
36 | Cc1ccsc1CN(C(=O)c1oc2ccccc2c1C)C1CCS(=O)(=O)C1 (centres undefined) | inactive
37 | Fc1ccccc1CSc1ncnc2c1ncn2C1CCCO1 (centres undefined) | inactive
38 | C=CCNC1=C2C[C@@H](C)C[C@H](OC)[C@H](O)[C@@H](C)/C=C(\C)[C@H](OC(N)=O)[C@@H](OC)/C=C\C=C(/C)C(=O)NC(=CC1=O)C2=O | inconclusive: 0.189 µM [inhibitor, full curve, poor fit]
39 | O=C(O)CCC(=O)Nc1ccccc1Oc1ccccc1 | inconclusive: 22.4 µM [inhibitor, full curve, poor fit]
40 | COc1ccc(N(C)S(=O)(=O)c2cccc(C(=O)Nc3cccc(C(=O)NC4CC4)c3)c2)cc1 | inconclusive: 28.2 µM [inhibitor, full curve, poor fit]
41 | Cc1cc(=O)cc2oc3cc(N)c(-c4c(C)cc(O)cc4O)c(C)c3nc1-2 | inactive
42 | CCCc1nnc(NC(=O)C2CC(=O)N(C3CCCC3)C2)s1 (centres undefined) | inconclusive: 89.1 µM [inhibitor, partial curve, poor fit]
43 | CNC(=O)CCSSCCC(=O)NC | inconclusive: 79.4 µM [inhibitor, partial curve, poor fit]
44 | Cc1ccc(/C=C/C(=O)Nc2cccc(S(=O)(=O)N3CCOCC3)c2)o1 | inconclusive: 17.8 µM [inhibitor, full curve, poor fit]

Row | SMILES | Potency
45 | CC(NC(=O)C(=O)N1CCOCC1)C(c1cccs1)N1CCN(c2ccccc2F)CC1 (centres undefined) | inactive
46 | CC(C)NC(=O)c1ccccc1NC(=O)C1COc2ccccc2O1 (centres undefined) | inconclusive: 35.5 µM [inhibitor, partial curve, poor fit]
47 | CCc1ccccc1N1CSC2=C(C#N)C(c3ccccc3F)CC(=O)N2C1 (centres undefined) | inconclusive: 20 µM [inhibitor, full curve, poor fit]
48 | O=C(CSc1nnc2ccccn12)c1ccc2c(c1)OCCO2 | inactive
49 | COc1ccc(-n2nc(C(=O)NCC(=O)Nc3cccc(Cl)c3)c3ccccc3c2=O)cc1OC | inconclusive: 50.1 µM [inhibitor, partial curve, poor fit]
50 | CC1CCc2c(C(=O)Nc3nccs3)csc2C1 (centres undefined) | inactive
51 | CCOc1cc(CNc2ccc(O)cc2)cc(Br)c1OCc1ccccc1F | inconclusive: 50.1 µM [inhibitor, partial curve, poor fit]
52 | CCN1CCCC1CNC(=O)c1cc(S(N)(=O)=O)ccc1OC (centres undefined) | inconclusive: 0.266 µM [inhibitor, full curve, poor fit]
53 | COc1ccc(C(=O)Nc2ccccc2C(=O)NC(Cc2c[nH]c3ccccc23)C(=O)O)cc1 (centres undefined) | inconclusive: 39.8 µM [inhibitor, partial curve, poor fit]
54 | N/C(=N\OCc1ccc([N+](=O)[O-])cc1)c1ccncc1 | inactive
55 | CCCC(=O)OCCNc1cc(Sc2nc3ccccc3[nH]2)c2nonc2c1[N+](=O)[O-] | inconclusive: 44.7 µM [inhibitor, partial curve, poor fit]
56 | CCOc1cccc(C=Nc2cc(C)cc(C)c2O)c1O | inconclusive: 89.1 µM [inhibitor, partial curve, poor fit]
57 | O=C(COc1ccc(Cl)cc1)Nc1nc(-c2ccncc2)cs1 | inconclusive: 56.2 µM [inhibitor, partial curve, poor fit]
58 | N#C/C(=C\c1c(Oc2ccc(Br)cc2)nc2ccccn2c1=O)c1nc2ccccc2s1 | inconclusive: 31.6 µM [inhibitor, full curve, poor fit]
59 | Oc1ccc(NCc2ccc(OCc3ccccc3Cl)cc2)cc1 | inconclusive: 79.4 µM [inhibitor, partial curve, poor fit]
60 | Cc1ccc(Cc2nc3ccccc3nc2SCC(=O)N2CCCCC2C)cc1 (centres undefined) | inactive
61 | Cc1ccc(-n2c(CCc3nc4ccccc4[nH]3)n[nH]c2=S)cc1 | inconclusive: 70.8 µM [inhibitor, single point]
62 | Fc1ccccc1-n1ncc2c1ncn1nc(Cc3ccccc3)nc21 | inactive
63 | Cc1ccccc1N1C(S)=C(C#N)C(=O)NC12CCCCC2 | inconclusive: 44.7 µM [inhibitor, partial curve, poor fit]
64 | Cc1ccc(-c2nn(-c3ccccc3)cc2/C=N/NS(=O)(=O)c2ccccc2)cc1 | inactive
